The list shows a part of the results. These are noisy estimates, calculated here from bound and input reads.

115 sequences from the BET-seq Pho4 binding data (Le et al. 2018) can be followed below.

The assay deals with T1, Pho4 (S. cerevisiae) (UniProt P07270).
T1 sequence: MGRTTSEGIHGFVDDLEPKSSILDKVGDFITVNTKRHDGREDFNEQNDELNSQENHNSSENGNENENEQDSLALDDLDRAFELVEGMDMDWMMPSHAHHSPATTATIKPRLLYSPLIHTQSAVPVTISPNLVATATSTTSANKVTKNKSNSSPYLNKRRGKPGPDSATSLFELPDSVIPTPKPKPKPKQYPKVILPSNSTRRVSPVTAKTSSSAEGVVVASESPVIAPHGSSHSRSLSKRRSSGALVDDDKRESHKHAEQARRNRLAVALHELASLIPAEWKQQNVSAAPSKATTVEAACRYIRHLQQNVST
The experiment in a line: relative binding free energy (BET-seq); higher = weaker binding. The following applies: reference: library average.
For the sequence GATGTCACGTGGGGGT, the “relative binding free energy” value was 0.04 kcal/mol.

For the sequence TATCGCACGTGTTGCG, the “relative binding free energy” value is 0.12 kcal/mol.

In the case of TGTGACACGTGGAGGT, the “relative binding free energy” value was -0.05 kcal/mol.

In the case of TGGTACACGTGTCGTG, the “relative binding free energy” value turned out to be 0.1 kcal/mol.

Take GCATTCACGTGTAGGG: the “relative binding free energy” value was 0.18 kcal/mol.

Regarding TGTGACACGTGTGTTA, the “relative binding free energy” value was 0.01 kcal/mol.

With ACTGTCACGTGCTTGG, the “relative binding free energy” value came to 0.1 kcal/mol.

As for GACTTCACGTGGAGTT, the “relative binding free energy” value was 0.44 kcal/mol.

Take GTGTTCACGTGCAGGG: the “relative binding free energy” value was determined as 0.33 kcal/mol.

Consider TGTGTCACGTGATTAC, for which the “relative binding free energy” value turned out to be 0.14 kcal/mol.

As to TTCGACACGTGGGGGT, the “relative binding free energy” value was -0.13 kcal/mol.

For GGGATCACGTGAGTAG, the “relative binding free energy” value was determined as 0.5 kcal/mol.

Regarding ATTGTCACGTGGGCGA, the “relative binding free energy” value was -0.13 kcal/mol.

For ATTAACACGTGGTGGG, the “relative binding free energy” value was -0.12 kcal/mol.

In the case of GTGTGCACGTGTGAGG, the “relative binding free energy” value came to 0.07 kcal/mol.

For TTTTTCACGTGTGTCT, the “relative binding free energy” value was 0.35 kcal/mol.

For the sequence GTTAACACGTGGTGCT, the “relative binding free energy” value stood at 0.06 kcal/mol.

For the sequence GAGTCCACGTGTTGTT, the “relative binding free energy” value was 0.12 kcal/mol.

On to CGGTCCACGTGTGGTG, for which the “relative binding free energy” value is 0.04 kcal/mol.

With TTGCACACGTGCGGGT, the “relative binding free energy” value is 0.01 kcal/mol.

On to TTTTTCACGTGGAGGT, for which the “relative binding free energy” value turned out to be 0.33 kcal/mol.

As for TGTGTCACGTGAGTTA, the “relative binding free energy” value stood at 0.34 kcal/mol.

As to ATTGCCACGTGGTGGT, the “relative binding free energy” value is -0.11 kcal/mol.

For ACTTTCACGTGTGATG, the “relative binding free energy” value is 0.42 kcal/mol.

In the case of TTAACCACGTGGGTGG, the “relative binding free energy” value is -0.23 kcal/mol.

Take TAGTTCACGTGCAGTA: the “relative binding free energy” value was 0.18 kcal/mol.

On to GTTTGCACGTGGTAGC, for which the “relative binding free energy” value came to 0.16 kcal/mol.

GTGGTCACGTGGTGGC: the “relative binding free energy” value was found to be 0.14 kcal/mol.

With GGGCTCACGTGCCGTG, the “relative binding free energy” value stood at 0.34 kcal/mol.

Take GTTAGCACGTGGTAAT: the “relative binding free energy” value is -0.09 kcal/mol.

GGGGTCACGTGTGGAC: the “relative binding free energy” value stood at 0.06 kcal/mol.

Turning to AGAGTCACGTGAGGAG, the “relative binding free energy” value was found to be 0.32 kcal/mol.

For TAAGGCACGTGTAGGT, the “relative binding free energy” value is -0.04 kcal/mol.

As for ATAGGCACGTGTGTGG, the “relative binding free energy” value is -0.02 kcal/mol.

For GGTGACACGTGGGATT, the “relative binding free energy” value worked out at 0 kcal/mol.

With AATGACACGTGGTACG, the “relative binding free energy” value was found to be 0.04 kcal/mol.

As for GTGGACACGTGGCTCT, the “relative binding free energy” value came out at 0.04 kcal/mol.

In the case of TGCCTCACGTGTGTGA, the “relative binding free energy” value was determined as 0.18 kcal/mol.

Consider GGTTGCACGTGTAGAT, for which the “relative binding free energy” value amounted to 0.11 kcal/mol.

In the case of TGTCACACGTGAGTGT, the “relative binding free energy” value turned out to be 0.2 kcal/mol.

With TGCATCACGTGCGTTG, the “relative binding free energy” value was found to be 0.23 kcal/mol.

Regarding CACTTCACGTGTGTGT, the “relative binding free energy” value was found to be 0.2 kcal/mol.

As for TGAAACACGTGTGGAG, the “relative binding free energy” value came out at 0.11 kcal/mol.

GAGGGCACGTGTAAAG: the “relative binding free energy” value was -0.06 kcal/mol.

For the sequence AGGTGCACGTGCATGG, the “relative binding free energy” value is -0.14 kcal/mol.

On to TAGGACACGTGGGAAC, for which the “relative binding free energy” value came to 0.24 kcal/mol.

CGGTCCACGTGGTTGG: the “relative binding free energy” value is -0.04 kcal/mol.

For the sequence CAAGTCACGTGGTGGG, the “relative binding free energy” value turned out to be 0.09 kcal/mol.

GATATCACGTGAGGAT: the “relative binding free energy” value amounted to 0.44 kcal/mol.

In the case of TTTGGCACGTGGTCTG, the “relative binding free energy” value was -0.23 kcal/mol.

With GGCTTCACGTGTTGAT, the “relative binding free energy” value was found to be 0.19 kcal/mol.

TGCGGCACGTGGAAGT: the “relative binding free energy” value amounted to 0.11 kcal/mol.

As for TTGGCCACGTGTTGAA, the “relative binding free energy” value is 0.05 kcal/mol.

Turning to TGTGACACGTGCGATG, the “relative binding free energy” value was -0.17 kcal/mol.

Regarding TAGTACACGTGCGGTT, the “relative binding free energy” value is -0.04 kcal/mol.

Take CGTGTCACGTGCGGGT: the “relative binding free energy” value is -0.18 kcal/mol.

For GGGGGCACGTGTCGAA, the “relative binding free energy” value is -0.03 kcal/mol.

For the sequence GGTGGCACGTGACGGA, the “relative binding free energy” value is 0.09 kcal/mol.

In the case of TATTACACGTGCAGGG, the “relative binding free energy” value worked out at 0.09 kcal/mol.

As for TGTTACACGTGTCGTG, the “relative binding free energy” value turned out to be 0.13 kcal/mol.

Turning to GTCTTCACGTGTCGTT, the “relative binding free energy” value came to 0.25 kcal/mol.

CGTTACACGTGGTGTA: the “relative binding free energy” value was -0.13 kcal/mol.

ATATGCACGTGCATGG: the “relative binding free energy” value was -0.11 kcal/mol.

Turning to TTTCTCACGTGAAGGG, the “relative binding free energy” value turned out to be 0.38 kcal/mol.

Turning to GAATACACGTGGTTTA, the “relative binding free energy” value was found to be 0.08 kcal/mol.

Consider GACAGCACGTGGTGTT, for which the “relative binding free energy” value was -0.19 kcal/mol.

In the case of ATGGTCACGTGGTTCA, the “relative binding free energy” value was determined as 0.06 kcal/mol.

ATAGGCACGTGGTCAG: the “relative binding free energy” value was -0.27 kcal/mol.

Take TCGGGCACGTGGTCCG: the “relative binding free energy” value was -0.11 kcal/mol.

Turning to GAGTACACGTGGTGGC, the “relative binding free energy” value stood at 0.1 kcal/mol.

For the sequence GTGTGCACGTGTGCGT, the “relative binding free energy” value came to 0.09 kcal/mol.

For the sequence TTGCGCACGTGATCGG, the “relative binding free energy” value is -0.08 kcal/mol.

For CGGGTCACGTGGGGCG, the “relative binding free energy” value is -0.04 kcal/mol.

Take GGCTGCACGTGTGGCG: the “relative binding free energy” value came out at 0.03 kcal/mol.

Consider GACGTCACGTGTATGT, for which the “relative binding free energy” value turned out to be 0.08 kcal/mol.

Take GATATCACGTGTTTAA: the “relative binding free energy” value turned out to be 0.15 kcal/mol.

For GTTATCACGTGTAAAT, the “relative binding free energy” value was found to be 0.16 kcal/mol.

Regarding TCGTTCACGTGGTAGT, the “relative binding free energy” value turned out to be 0.24 kcal/mol.

As for GAGTTCACGTGTATTA, the “relative binding free energy” value was determined as 0.23 kcal/mol.

As to ATTTCCACGTGGATTG, the “relative binding free energy” value came to 0.03 kcal/mol.

For ATTAACACGTGATGGT, the “relative binding free energy” value is 0.15 kcal/mol.

Regarding TAAAACACGTGGTGTT, the “relative binding free energy” value is -0.08 kcal/mol.

Turning to CTTTACACGTGTGTGA, the “relative binding free energy” value amounted to 0 kcal/mol.

Turning to GTAGGCACGTGGACGG, the “relative binding free energy” value is -0.04 kcal/mol.

For TAACTCACGTGTGGGG, the “relative binding free energy” value is 0.18 kcal/mol.

For the sequence ATGTGCACGTGATTAA, the “relative binding free energy” value was 0.06 kcal/mol.

On to AAAATCACGTGTTGGG, for which the “relative binding free energy” value came to 0.16 kcal/mol.

As for AGCGGCACGTGCTAGG, the “relative binding free energy” value is -0.23 kcal/mol.

Regarding CTTGTCACGTGAATGG, the “relative binding free energy” value stood at 0.2 kcal/mol.

For CTTGGCACGTGCTTGT, the “relative binding free energy” value is -0.13 kcal/mol.

On to CTGTGCACGTGCGTGA, for which the “relative binding free energy” value was -0.03 kcal/mol.

For AGGTGCACGTGCGCTG, the “relative binding free energy” value is -0.21 kcal/mol.

For TCTGGCACGTGTAGGT, the “relative binding free energy” value was -0.09 kcal/mol.

Turning to TCGGGCACGTGTGTGG, the “relative binding free energy” value was -0.09 kcal/mol.

On to GGTTTCACGTGATATG, for which the “relative binding free energy” value was 0.35 kcal/mol.

As to AAGATCACGTGTTAGA, the “relative binding free energy” value is 0.18 kcal/mol.

With ATGGTCACGTGGAAAA, the “relative binding free energy” value was 0.26 kcal/mol.

For the sequence GTCTTCACGTGTTGTA, the “relative binding free energy” value was 0.27 kcal/mol.

Turning to TTGGACACGTGGGCAT, the “relative binding free energy” value was -0.05 kcal/mol.

Regarding CGGTGCACGTGTGTCT, the “relative binding free energy” value stood at 0.03 kcal/mol.

For the sequence TTGTTCACGTGGGTAC, the “relative binding free energy” value turned out to be 0.14 kcal/mol.

With AGAATCACGTGGGGGA, the “relative binding free energy” value amounted to 0 kcal/mol.

For the sequence GTCTACACGTGGGTTG, the “relative binding free energy” value was -0.09 kcal/mol.

ATAGCCACGTGCGGGT: the “relative binding free energy” value is -0.11 kcal/mol.

For the sequence GCGGGCACGTGAGCGG, the “relative binding free energy” value was found to be 0.14 kcal/mol.

Turning to CGTGACACGTGGTATG, the “relative binding free energy” value is -0.14 kcal/mol.

Consider TTTTGCACGTGATTGT, for which the “relative binding free energy” value came out at 0.16 kcal/mol.

On to GTGGTCACGTGGCAGT, for which the “relative binding free energy” value turned out to be 0.05 kcal/mol.

Regarding TTTTGCACGTGCTATT, the “relative binding free energy” value was -0.11 kcal/mol.

Regarding TAGGACACGTGGAGGG, the “relative binding free energy” value turned out to be 0.01 kcal/mol.

For CTAGTCACGTGAGGAG, the “relative binding free energy” value is 0.36 kcal/mol.

For the sequence GGATTCACGTGGAATG, the “relative binding free energy” value stood at 0.33 kcal/mol.

Turning to TGTTTCACGTGTGTCA, the “relative binding free energy” value is 0.33 kcal/mol.

Regarding ACGTGCACGTGGGTTA, the “relative binding free energy” value was -0.18 kcal/mol.

In the case of GTAATCACGTGTGTCG, the “relative binding free energy” value is 0.25 kcal/mol.
